The results in this text go back to the RNAGym collection of RNA variant scans (doi:10.1073/pnas.2313332121).

First the molecules themselves.
B1: TPR 5TU (parent)
chain: GGAUCUUCUCGAUCUAACAAAAAAGACAAAUCUGCCACAAAGCUUGAGAGCAUCUUCGGAUGCAGAGGCGGCAGCCUUCGGUGGCGCGAUAGCGCCAACGUUCUCAACUAUGACACGCAAAACGCGUGCUCCGUUGAAUGGAGUUUAUCAUG

This sample is rich in variants without activity. Where only a bound is given, the exact number is not on record here.

In this data set the parent is B1. The experiment in a line: polymerase ribozyme fitness, log enrichment relative to wild type (log ratio); higher = more active; in vitro selection for triplet polymerase activity. Summed up: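 Mutant libraries were PCR-built and transcribed for each subunit of a heterodimeric triplet polymerase ribozyme and selected for one round in triplicate at −7 °C, frozen, before gel excision of extended constructs and streptavidin-bead capture. Input and output libraries were Illumina-sequenced, keeping genotypes with ≥10 input reads and ≥1 read per output. Fitness is a logarithmic ratio of genotype to wild-type enrichment, in base 2, using inverse-variance-weighted replicate averages.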
In the case of GGAUCUUCGCUAUCUACCAAAAAAGACAAAUCUGCCACAAAGCUUGAGCGCAUCUUCGGGUGCAGAGGCGGCAGCCUUCGGUGGCGCGAUAGCGCCAAAGUUCUCAACUAUGACACGCAAAACGCGUGCUCCGUUGAAUGGAGUUUAGCAUG [U9G G11U A17C A49C A60G C99A U148G], the “polymerase ribozyme fitness (log ratio)” value was not above -4.2.
The result for GGAUCUUCGCGAUCUAACAAAAAAGACAAAUCUGACACGAAGCUUGAGAGCAUCUUCGGAUGCAGAGGCGGCAGCCUUCGGUUGCGCGAUACCGCCAACGUUCUCAACUAUGACACGCAAAACGCGUGCUCCGGGUAAUGGAGUUUAUCAUG [U9G C35A A39G G83U G92C U134G U135G G136U] reads not above -4.2; that for GGAUCUUCGCGAUCUAACAAAAAAGACAAAUCUGCCACAAAGCUUGAGAGCAUCUUCGCAUGCAGAGGCGGCAGCCUUCGGUGGCGCGAUACCGCCAACGUUCUCAGCUAUGACGCGCAAAACGCGUGCUCCGUUGAAUGGAGUUUAUCAUG [U9G G59C G92C A107G A115G], not above -4.2; that for GGAUCUUCGCGAUCUAACAAAAAAGACAAAUCUGCCACAAAGCUUGAGAGCAUCUUCGGAUGCAGAGGCGGCAGCCUUCGGUGGGGCGAUAGCGCCAACGUUCUCAACUAUGACACGCAAAACGCGUGCUCCGUUGAAUGGAGUUUAUCAUG [U9G C85G], not above -4.2.
On to GGAUCUUCGCGAUCUAACAAAAAAGACAAAUCUGCCACAAAGCUUGAGAGCAUCUUCGGAUGCAGAGGCGACAGCCUUCGCUGGCGCGAUAGCGCCAACGUUCUCAACCAUGACACGCAAAACGCGUGGUCCGUUGAAUGGAAUCUAUCAUG [U9G G71A G81C U109C C129G G143A U145C], for which the “polymerase ribozyme fitness (log ratio)” value is not above -4.2.
On to GGAUCUUCGCGAUCUAACAAAAAAGACAAAUCUGCCACAAAGCUUGAGAGCAUCUUCAGAUGCAGAGGCGGCAGUCUUCGGUUGCGCGAUAGCGACAACGUUCUCAACUAUGACACGCAAAACGCGUGCUACGUUGAAUGGAGUUUAUCAUG [U9G G58A C75U G83U C95A C131A], for which the “polymerase ribozyme fitness (log ratio)” value was not above -4.2.
For the variant GGAUCUUCGCGAUCUAACAAAAAAGACAAAUCUGCCACAAAGCUUGAGAGCAUCUUCGGAUGCAGAGGCGGCAGCCUUCGGUGGUGCGAUAGCGUCAACGUUCUCAACUAUGACACGCAAAACGCGUGCUCCGUUGAAUGGAGUUAAUCAUG [U9G C85U C95U U146A], the “polymerase ribozyme fitness (log ratio)” value was not above -4.2.
As to GGAUCUUCGCGAUCUAACAAAAAAGACAAAUCUGCCACAAAGCUUGAGAGCAUCUUCGGAUGCAGAGGCGGCAGCCUUCGGUGGCGGGAUAGCGCCAACGUUCUCAACUAUGACACGCAAAACGCGUGCUCCGUUGAAUGGAGUUUAUCAUG [U9G C87G], the “polymerase ribozyme fitness (log ratio)” value was not above -4.2.
Regarding GGAUCUUCGCGAUCUAAUAAAAAAGACAAAUCUGCCACAAAGCUUCAGAGCAUCUUCGGAUGCAGAGGCGGCAGCCUUCGGUCGCGCGAUAGCGCCAACGUUCUCAUCUAUGACACGCAAAACGAGUGCUCCGUUGAAUGGAGUUUAUCAUG [U9G C18U G46C G83C A107U C125A], the “polymerase ribozyme fitness (log ratio)” value is not above -4.2.
As to GGAUCUUCGCGAUCUAACAAAAAAGACAAAUCUGCAACAAAGCUUGAGAGCAUUUUCGAAUGCAGAGGAGGCAGCCAUCGGUGGCGCCAUAGCGCCAACGUUCUCAACUAUGACACGCAAAACGCGUGCUCCGUUGAAUGGAGUUUAUCAUG [U9G C36A C54U G59A C69A U77A G88C], the “polymerase ribozyme fitness (log ratio)” value is not above -4.2.
As to GGAUCUUCGCGAUCUAACAAAAAAGACAAAUCUGCCACAAAGCUUGAGAGCAUCUUCGGAUGCAGAGGCGGCAGCCUUCGUUGGCGCAAUAGCGCCGACGUUCUCAACUAUGACACGCAAAACGCGUGCUCCGUUGAAUGGAGUUUAGCAUG [U9G G81U G88A A97G U148G], the “polymerase ribozyme fitness (log ratio)” value was not above -4.2.
Turning to GGAUCUUCGCGAUCUAACAAAAAAGACAAAUCUGCCACAAAGAUUGAGAGCAUAUUCGGAUGCAGAGGCGGCAGGCUUCGGUGGCGCGAUAGGGCCAACGUUCUCAACUAUGACACGCAAAACGCGUGCUCCGUUGAAUGGAGUUAAUCAUG [U9G C43A C54A C75G C93G U146A], the “polymerase ribozyme fitness (log ratio)” value was not above -4.2.
As for GGAUCUUCGCGAUCUAACAAAAAAGACAAAUCUGCCACAAAGCUUGAGACCAUCUUCGGAUGCAGAGGCGGCAGCCUUCGGUGGCGCGAUAGUGCCAACGUUCUCAACUAUGACACGCAAAACGCGUGCUCCGUUGAAUGCAGUUUAUCAUG [U9G G50C C93U G141C], the “polymerase ribozyme fitness (log ratio)” value is not above -4.2.
GGAUCUUCGCGAUCUAACAAAAAAGACAAAUGUGCCACAAAGCUUGAGAGCAUCUACGGAUUCAGAGACGGCAGCCUUCGGUGGCGCUAUAGCGCCAACGUUCUCAACUAUGACACGCAAAACGCGUGCUCCGUUGAAUGGAGUUUAUCAUG [U9G C32G U56A G62U G68A G88U]: the “polymerase ribozyme fitness (log ratio)” value is not above -4.2.
Consider GGAUCUUCGCGAUCUAACAAAAAAGACAAAUCUGCCAUAAAGCUUGAGAGCAUCUUCGGAUGCAGAGGCGGCAGCCUUCGGUGGCGCGAUAGCGCGUACGUUCUCAACUAUGACACGCAAAACGCGUGCUCCGUUGAUUGGAGUUUAUCAUG [U9G C38U C96G A97U A138U], for which the “polymerase ribozyme fitness (log ratio)” value was not above -4.2.
For GGAUCUUCGCUAUCUAACUAAAGAGACAAAUCUGCCACAAAGCUUGAGAGCAUCUUCGGCUGCAGAGGCGGCAUCCUUCGGUGUCGCGAUAGCGCCAUCGUUCUCAACUAUGACACGCAAAACGCGUGCUCCGUAGAAUGGAGUUUAUCAUG [U9G G11U A19U A23G A60C G74U G84U A98U U135A], the “polymerase ribozyme fitness (log ratio)” value is not above -4.2.
Under GGAUCUUCGCGAUUUAAGAAAAGAGACAAAUCUGCCACAAAGCUUGAGAGCAUCUUCGGCUGCAGAGGCGGCAGCCUUCGGUGGCGCGAUAGCGUUAACGUUCUCAACUAUGACACGCAAAACGCGUGCUCCGUUGAAUGGAGUUUCUCAUG [U9G C14U C18G A23G A60C C95U C96U A147C] stands not above -4.2; under GGAUCUUCGCGAUCUAACAAAAAAGACAAAUCUGCCACAAAGCUUGAUCGAAUCUUCGGAUGCAGAGGCGGGAGCCUUCGGGGGCGCUAUAGCGCCAACGUUCUCAACUAUGACACGCAAAACGCGUGCUCCGUUGAAUGGAGGUUAUCACG [U9G G48U A49C C51A C72G U82G G88U U144G U151C], not above -4.2.
With GGAUCUUCGCGAUCUAACAAAAAAGACAAAUCUGCCACAAAGCUUGAGAGCAUCUUCGGAUCCAGAGGCGGCAACCUUCGGUGGCGCGAUAGUGCCAACGUUCUCAACUAUGACACGCAAAACGCGUGCUCCGUUGACUGGAGUUUAUCAUG [U9G G62C G74A C93U A138C], the “polymerase ribozyme fitness (log ratio)” value is not above -4.2.
